Values marked as one replicate rest on one cluster of the flow cell; about a third of the high ones do not repeat.
tested on: ATP; assay: switch fluorescence ratio, 500 uM ATP over buffer (Cy3 cluster intensity, sum of 5 cycles each) (fold (ratio)); higher = stronger signal-on switching upon ATP binding; sequences stand for … in TCGTCGGCAGCGTCAGATGTGTATAAGAGACAGTTTTTTTTTTTTTTTTTTTTTTTTT…TC; settings: aptamer strand: ATP DNA aptamer (quencher-CACCTGGGGGAGTATTGCGGAGGAAGG + anchor), 100 nM annealed; ATP concentration: 500 uM; one replicate
Outline: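 Clusters with intensities outside 100-1000 RFU were excluded. The remaining Cy3-labelled switching-strand clusters on a modified Illumina MiSeq flow-cell had been annealed to 100 nM quencher-labelled ATP aptamer and imaged in selection buffer, then after 15 min with 500 uM ATP at 22 °C, for five cycles separated by NaOH stripping and re-annealing. The fluorescence ratio, averaged per switch-domain sequence, is each cluster's summed target-cycle Cy3 intensity over its summed buffer-cycle Cy3 intensity.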
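Further: ATP exposure 15 min at 22 °C before imaging.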

Sequence	switch fluorescence ratio
GTCTGGGATA	0.974
GTCTGGGCAC	1.02
GTCTGGGTTT	0.991
GTCTTAGAGC	1.02
GTCTTATGCA	0.993
GTCTTCAATT	0.982
GTCTTTATTT	1.01
GTCTTTTCAT	0.99
GTGAAAAGG	0.972
GTGAAATTAG	1
GTGAACCGGG	1.06
GTGAAGCGCG	1
GTGAAGCGGA	0.996
GTGAAGGAAG	1
GTGAATAGGA	0.998
GTGAATCGTC	1.03
GTGAATCTGC	1.01
GTGAATGTTT	0.985
GTGAATTAG	1.01
GTGACAAGTC	0.975
GTGACAGGAT	0.977
GTGACCACCT	1.07
GTGACCAGAT	1.02
GTGACCGGAT	1.07
GTGACGATTC	1.53

Sequence	switch fluorescence ratio
GTGAGAAAGC	1.04
GTGAGGCCTG	1.01
GTGAGGCTGA	1.05
GTGAGGGCGT	1.01
GTGAGGGTCT	0.998
GTGAGTGTGA	1.02
GTGAGTTAG	0.989
GTGATACTGC	1.25
GTGATAGTTT	0.99
GTGATATAAC	1.03
GTGATCAAG	1.06
GTGCAACTTT	0.983
GTGCACGCCC	0.971
GTGCAGGGGA	1.02
GTGCAGTACG	1.52
GTGCAGTGGC	1.02
GTGCCAGGTA	1.06
GTGCGATCTC	1.26
GTGCGGAGTA	1.01
GTGCGGGAG	1.02
GTGCGGGAGC	1.02
GTGCTAGCGT	0.974
GTGCTATATG	0.982
GTGCTCCCGG	1.19
GTGCTGAACT	0.981

Sequence	switch fluorescence ratio
GTGCTGGCTT	1.05
GTGCTTGAGT	0.997
GTGGAAGGG	0.937
GTGGACCCGA	0.992
GTGGACGGTG	0.99
GTGGAGAC	1.08
GTGGAGGAGC	1
GTGGAGTGGA	0.992
GTGGATAAGC	0.988
GTGGATAGGA	0.993
GTGGATGGAG	0.991
GTGGCAAGTA	1.09
GTGGCGGCCG	0.967
GTGGCTAGGA	1.03
GTGGCTGAG	0.99
GTGGCTGTTC	1.01
GTGGCTTAA	1
GTGGCTTACT	1.02
GTGGGAAATA	0.97
GTGGGACAA	1.02
GTGGGAGCC	0.981
GTGGGAGTTA	0.981
GTGGGAGTTC	0.99
GTGGGCAACG	0.999
GTGGGCCGGT	0.984

Sequence	switch fluorescence ratio
GTGGGCTTTT	0.944
GTGGGGAGAC	1.03
GTGGGGCTAT	1.03
GTGGGTAATC	0.956
GTGGGTGG	1.01
GTGGTAGCTG	1.05
GTGGTATGTA	0.997
GTGGTCCCGG	0.99
GTGGTCTGGG	0.996
GTGGTCTTCG	0.994
GTGGTGCATA	1.01
GTGGTGGAGC	0.964
GTGGTGTTCC	0.98
GTGGTTAAA	1.01
GTGGTTACCT	1.09
GTGGTTCTCA	1.01
GTGGTTGCTC	1
GTGGTTTATG	0.99
GTGTAAAACA	1.1
GTGTAAACAG	1.02
GTGTAAGGGC	1.02
GTGTAATGGA	0.963
GTGTACCCAT	1.08
GTGTACCCT	1.02
GTGTACGCAG	0.991
